Tested on: mouse platelets
Conditions: in vivo
Experimental: Incubation of mouse platelets with increasing concentrations of the broad spectrum A. ureafaciens α2-3,6,8-sialidase increased surface β-galactose exposure, but not β-GlcNAc, as detected by lectin binding assays in the flow cytometer (FIG. 16). FIG. 17 presents progressive loss of surface of surface GPIbα and GPV in conjunction with decrease in sialic acid content (p<0.05). GPIbα receptor expression was followed with multiple anti-GPIbα antibodies to exclude the possibility that desialylation altered antibody binding to GPIbα. […] FIG. 20 confirms the flow cytometry data shown in FIG. 19 by using immunoblot analysis of total platelet lysates, platelet supernatants, and corresponding platelet pellets with or with addition of neuraminidase and DANA.

## CC(=O)NC1C(O)C=C(C(=O)O)OC1C(O)C(O)CO (stereo not shown) [DANA]
  platelet survival of room temperature stored mouse platelets: preserved

— patent publication US9788539B2, “Platelet protection solution having beta-galactosidase and sialidase inhibitors” (Velico Medical, Inc., priority 2011, dated 2017)
